± gives the standard error. This sample is rich in variants without activity.
B1: glmS ribozyme (parent)
chain: AUAAAAGCGCCAGAACUACAGAAAUGUAGUUGACGAGGAGGAGGUUUAUCGAAUUUUCGGCGGAUGCCUCCAAA

Assays:
Settings in all cases: with glucosamine-6-phosphate
glucosamine-6-phosphate [1] = variants of: B1; assay: self-cleavage kobs at 640 uM GlcN6P; higher = faster cleavage; RNA array
Summary of the method: (§1)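 Sequenced MiSeq chips were the platform: E. coli RNA polymerase transcribed barcoded ribozyme variants on them in situ, and a hybridised Cy3 probe tracked these at 37 °C. After glucosamine-6-phosphate (40 μM to 10 mM) in HEPES/KCl/Mg(OAc)2 buffer was flowed in, tiles were imaged over ~14 h. Signals normalised to baseline and to non-cleaving reference variants were reduced to per-tile medians and fit to one- or two-exponential decays to obtain kobs. kcat and KM were derived through weighted Michaelis–Menten fits across concentrations.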

glucosamine-6-phosphate [2] = variants of: B1; assay: self-cleavage kobs at 2500 uM GlcN6P; higher = faster cleavage; RNA array
Summary of the method: as §1

glucosamine-6-phosphate [3] = variants of: B1; assay: self-cleavage kobs at 160 uM GlcN6P; higher = faster cleavage; RNA array
Summary of the method: as §1

glucosamine-6-phosphate [4] = variants of: B1; assay: self-cleavage kobs at 10000 uM GlcN6P; higher = faster cleavage; RNA array
Summary of the method: as §1

Variant	self-cleavage kobs at 640 uM GlcN6P (glucosamine-6-phosphate [1]) [s⁻¹]	self-cleavage kobs at 2500 uM GlcN6P (glucosamine-6-phosphate [2]) [s⁻¹]	self-cleavage kobs at 160 uM GlcN6P (glucosamine-6-phosphate [3]) [s⁻¹]	self-cleavage kobs at 10000 uM GlcN6P (glucosamine-6-phosphate [4]) [s⁻¹]
C10G G40U C67U	< 1e-05	–	–	–
C10G U57C U69G	< 1e-05	–	–	–
C10U A33C U46C G51C G60C	< 1e-05	< 1e-05	–	–
C10U A39U C67G	< 1e-05	–	< 1e-05	–
C10U A53G G63A	< 1e-05	< 1e-05	–	–
C10U C68U C70U	< 1e-05	–	–	–
C10U G29U G41A A52U G60A	< 1e-05	–	–	–
C10U G32C A36G A39U	< 1e-05	< 1e-05	< 1e-05	–
C10U G35U A64U	< 1e-05	< 1e-05	–	–
C10U G35U G59U	< 1e-05	–	–	–
C10U G38A U47C C68G	< 1e-05	–	–	–
C10U G43C G51U C70G	< 1e-05	< 1e-05	< 1e-05	–
C10U G63A	< 1e-05	< 1e-05	–	–
C10U U31G A33G G40U C58G C71U	< 1e-05	< 1e-05	–	–
C10U U49A G51A A53C	< 1e-05	–	< 1e-05	–
C11A A52U C58G	< 1e-05	< 1e-05	–	–
C11A A64U	< 1e-05	–	< 1e-05	–
C11A G43C C61G	< 1e-05	< 1e-05	< 1e-05	–
C11A G44U A48G C61A	< 1e-05	–	–	–
C11A U30A G38C U65G	< 1e-05	< 1e-05	< 1e-05	< 1e-05
C11G A12U G32U G35C C71G	< 1e-05	–	–	–
C11G A12U U30A A33C G41A G63C	< 1e-05	< 1e-05	< 1e-05	–
C11G A36U U47G	< 1e-05	–	–	–

Variant	self-cleavage kobs at 640 uM GlcN6P (glucosamine-6-phosphate [1]) [s⁻¹]	self-cleavage kobs at 2500 uM GlcN6P (glucosamine-6-phosphate [2]) [s⁻¹]	self-cleavage kobs at 160 uM GlcN6P (glucosamine-6-phosphate [3]) [s⁻¹]	self-cleavage kobs at 10000 uM GlcN6P (glucosamine-6-phosphate [4]) [s⁻¹]
C11G A39C	< 1e-05	–	–	–
C11G A39C G40U	< 1e-05	< 1e-05	< 1e-05	–
C11G A42C G62U	< 1e-05	< 1e-05	–	–
C11G G60U A64U	< 1e-05	< 1e-05	–	–
C11U A14G C34U G66U	< 1e-05	< 1e-05	–	–
C11U A33C G41A	< 1e-05	–	–	–
C11U A39C	8.75e-05 ± 1.3e-05	0.000299 ± 5e-05	–	0.00051 ± 5.5e-05
C11U G13C G62A	< 1e-05	< 1e-05	< 1e-05	–
C11U G29C G37C	< 1e-05	–	–	–
C11U G32C G62A	< 1e-05	< 1e-05	< 1e-05	–
C11U U30C A53U G59U	< 1e-05	–	–	–
C11U U30C G43A	< 1e-05	–	–	–
C11U U45A U57A C67G C68U C70U	< 1e-05	< 1e-05	–	–
C11U U56A C70G	0.000217 ± 5.8e-05	0.000145 ± 3e-05	–	–
C11U U56A G66A	8.42e-05 ± 1.7e-05	0.000197 ± 4.1e-05	4.3e-05 ± 1.4e-05	–
A12C A20C	0.00491 ± 0.0012	0.0118 ± 0.0035	–	–
A12C A36U A52G C68A	< 1e-05	–	–	–
A12C C16U A33G	< 1e-05	–	–	< 1e-05
A12C G62U C67A	< 1e-05	–	–	–
A12G A48U C70A	< 1e-05	–	–	–
A12G C34G U46G C61U C68A	< 1e-05	< 1e-05	–	–
A12G G41U C68G C70G	< 1e-05	–	–	–
A12G G44U	< 1e-05	–	–	–

Variant	self-cleavage kobs at 640 uM GlcN6P (glucosamine-6-phosphate [1]) [s⁻¹]	self-cleavage kobs at 2500 uM GlcN6P (glucosamine-6-phosphate [2]) [s⁻¹]	self-cleavage kobs at 160 uM GlcN6P (glucosamine-6-phosphate [3]) [s⁻¹]	self-cleavage kobs at 10000 uM GlcN6P (glucosamine-6-phosphate [4]) [s⁻¹]
A12G G60U	< 1e-05	< 1e-05	< 1e-05	–
A12G U46G G59U	< 1e-05	< 1e-05	< 1e-05	–
A12G U69C	0.000152 ± 2e-05	0.000243 ± 5.4e-05	–	0.0007 ± 8.2e-05
A12U A14C U47A	0.000593 ± 0.00011	0.00107 ± 0.00025	0.000117 ± 2.3e-05	–
A12U C34G G41A A53G	< 1e-05	< 1e-05	< 1e-05	–
A12U G35A A39U A42U U49A C58A	< 1e-05	< 1e-05	< 1e-05	< 1e-05
A12U G35U C70G	< 1e-05	–	–	–
A12U U56G G66C	0.000374 ± 9e-05	0.000708 ± 0.00017	0.000132 ± 3.1e-05	–
G13A A33C A48G G62U	< 1e-05	–	< 1e-05	–
G13A A42C A64G	< 1e-05	< 1e-05	< 1e-05	–
G13A G40A G62A	< 1e-05	< 1e-05	–	–
G13A G62C A64U U69G	< 1e-05	–	–	–
G13A U45C C50U C71G	< 1e-05	< 1e-05	< 1e-05	–
G13A U49A	< 1e-05	< 1e-05	< 1e-05	–
G13A U69G	7.5e-05 ± 1.3e-05	6.99e-05 ± 1.7e-05	4.26e-05 ± 1.5e-05	–
G13C A14G G32A	0.00264 ± 0.00054	0.00874 ± 0.0043	0.000606 ± 0.00018	–
G13C A15U A33U	< 1e-05	–	–	< 1e-05
G13C A36G G63C	< 1e-05	–	< 1e-05	–
G13C C16A G41A C70G	< 1e-05	–	–	–
G13C C50A	< 1e-05	–	–	< 1e-05
G13C G35U G38C G40U	< 1e-05	< 1e-05	< 1e-05	–
G13C G37A G62A	< 1e-05	< 1e-05	–	< 1e-05
G13C G40U U57C A64G	< 1e-05	–	–	–

Variant	self-cleavage kobs at 640 uM GlcN6P (glucosamine-6-phosphate [1]) [s⁻¹]	self-cleavage kobs at 2500 uM GlcN6P (glucosamine-6-phosphate [2]) [s⁻¹]	self-cleavage kobs at 160 uM GlcN6P (glucosamine-6-phosphate [3]) [s⁻¹]	self-cleavage kobs at 10000 uM GlcN6P (glucosamine-6-phosphate [4]) [s⁻¹]
G13C G59A C61U C67U	< 1e-05	–	–	–
G13C U31G C70U	4.2e-05 ± 1.9e-05	0.000148 ± 3.9e-05	–	0.000131 ± 2.7e-05
G13U A33G U54C	< 1e-05	< 1e-05	–	–
G13U A42C	< 1e-05	< 1e-05	< 1e-05	< 1e-05
G13U A42U G44A U55G	< 1e-05	–	–	–
G13U G35U A42C U46C	< 1e-05	–	–	–
G13U U56G	0.000172 ± 2.5e-05	0.000372 ± 6.6e-05	7.12e-05 ± 2e-05	0.000774 ± 9.3e-05
A14G A36G A42U	< 1e-05	< 1e-05	–	< 1e-05
A14G C34A U46C	< 1e-05	< 1e-05	< 1e-05	–
A14G C34G G40C G41U C67G	< 1e-05	< 1e-05	–	–
A14G C34U U54G C58G U69G	0.000551 ± 0.0002	–	–	–
A14G G29A A36U U47C C67U	< 1e-05	–	< 1e-05	–
A14G U31A G41A C71U	0.000186 ± 7.9e-05	0.000396 ± 0.00011	–	–
A14U A15U A36U G40A G41A A53C U65C	< 1e-05	< 1e-05	–	–
A14U A33C C68U C70U	< 1e-05	< 1e-05	–	–
A14U C16A G66A	3.92e-05 ± 1.7e-05	0.000107 ± 2.6e-05	–	–
A14U C70U C71G	6.53e-05 ± 1.7e-05	3.73e-05 ± 1.3e-05	–	3.81e-05 ± 1.8e-05
A14U G40U G60A	< 1e-05	< 1e-05	–	–
A14U U30G U69G C71G	0.000132 ± 4.4e-05	0.00026 ± 5.9e-05	–	–
A14U U57G G62A	< 1e-05	–	–	–
A15C A42G G43A	< 1e-05	–	–	–
A15C G40A A42C C50G	< 1e-05	< 1e-05	–	–
A15G A36U C71G	< 1e-05	–	–	–

Variant	self-cleavage kobs at 640 uM GlcN6P (glucosamine-6-phosphate [1]) [s⁻¹]	self-cleavage kobs at 2500 uM GlcN6P (glucosamine-6-phosphate [2]) [s⁻¹]	self-cleavage kobs at 160 uM GlcN6P (glucosamine-6-phosphate [3]) [s⁻¹]	self-cleavage kobs at 10000 uM GlcN6P (glucosamine-6-phosphate [4]) [s⁻¹]
A15G C16U C68G	8.06e-05 ± 1.8e-05	8.91e-05 ± 3e-05	–	–
A15G C34U A64G	< 1e-05	< 1e-05	< 1e-05	–
A15G G32A C61U	< 1e-05	< 1e-05	–	–
A15G G60U A64G C70A	< 1e-05	< 1e-05	–	–
A15U A33G G51C U55G G60U	< 1e-05	–	< 1e-05	–
A15U G35C U54G	< 1e-05	< 1e-05	–	–
A15U G43C	< 1e-05	–	–	–
A15U U31C U55G G63U	< 1e-05	–	–	–
A15U U46C G59A	< 1e-05	< 1e-05	–	–
C16A A42U U55A	< 1e-05	< 1e-05	< 1e-05	–
C16A G38A G66A	< 1e-05	< 1e-05	–	–
C16A U31G G38U G43A	< 1e-05	< 1e-05	< 1e-05	–
C16G C34G A42C G43A	< 1e-05	–	–	–
C16G G44U U69C C70U	< 1e-05	< 1e-05	–	< 1e-05
C16U A33G A39C A42G	< 1e-05	–	–	–
C16U A36C G38A	< 1e-05	–	–	< 1e-05
C16U C34A G51C	< 1e-05	< 1e-05	–	–
C16U G35C	< 1e-05	–	–	< 1e-05
C19A G38A G63U	< 1e-05	–	–	–
A23C C68U	0.00205 ± 0.00047	–	–	–
A23C U69A	0.000292 ± 0.0001	0.000135 ± 2.9e-05	–	9.83e-05 ± 4.3e-05
A28G C70A	6.33e-05 ± 2.1e-05	0.000497 ± 0.00012	0.000126 ± 3.7e-05	–
